Read counts are not given, so values of variants with three or more changes are uncertain.
B1: LINE1-mini (parent)
chain: GGCAGAGCUCAACACAGCGUGGCAAAGUGGCUGUGGCUAGACUGCC

Variants of: B1
Test: self-cleavage, relative activity (ratio to wild type); higher = more cleavage; in vitro, sequencing; the parent is a self-cleaving ribozyme

| Variant | self-cleavage |
| --- | --- |
| GGCAGAGCUCAACACAGCGUUGCAAAGUGGCGGUAGCUAGGCUGCC | 0.12 |
| GGCAGAGCUCCACACAGCGUGGCAAAGUGCCUGUGGAUAGACUGCG | 0 |
| AGCAGAGCUCAACACAGCGUGCCAAAGAGGCUGUGGCUAGACUGCC | 0.61 |
| GGCAGAGCUCAACACAACGUCGCAAAGUGGCUGUGGCUAGAGUGCC | 0.06 |
| GGCAGAGCUCAACACAGCGUGAGAAAGUGUCUGUGGCUAGACUGCC | 0.92 |
| GGCGGAGCUCAUCACAGCGUGGCAAAGUGGCUGUCGCUAGACCGCC | 0.13 |
| CGCAUAGCUCAACACAGCGUGGGAAAGUUGCUGUGGCUAGACUGCC | 0.01 |
| GGCAGAGAUCAAUACAGCGUGGCAAAGUGGCUGUGGCAAGACUGCC | 0.01 |
| GGCAGAGCUAAACACAGCGUAGCAAAGUGGCUGUGGCUAGGCUGCC | 0.03 |
| GAGAGAGCUCAACACGGCGUGGCAAAGUGGCUGUGGCUAGACUGAC | 0.63 |
| UGCAGAGCUCAACAAAGCGUGGCAAAGUGGCUGUGGCUAUACUGCC | 0.05 |
| GGUAGGGCACAACACAGCGUGGCAAAGUGGCUGUGGCUAGACUGCC | 0.46 |
| GGUAGAGCUCAACACACCGUGGCAAAGUGGCUGUGGUUCGACUGCC | 0.1 |
| GGCAGAGCUCAACACAGCGUAUCAAAGUGGCUGUGGCUAGACUGCG | 0.81 |
| CGCUGAGCUCUACACGGCGUGGCAAAGUGGCUGUCGAUAGACUGGC | 0.01 |
| GGCAGAGAUCCACACAGCGUGGCAAGGUGGCCGUGGCUAGACGGAC | 0.01 |
| GGCCGAGCUCAAAACAGCGUGGCAAAGUGGCUGUGGCUAGUCUGCC | 0.04 |
| CGCAGAGCUCAACACCGCGUGGCGAAGUGGCUGUGCCUAGACUGCC | 0.01 |
| GGCAGAGCACAACACAGCGCGGCAAAGUGGCCGUGGCUAGACUGCC | 0.52 |
| GGCAGAGCUCAACACAGCGUGGCAACGUCGCUGUGGCUAGACUGCA | 1.33 |
| GGCGGAGCUCAACACAGCGUGGUAAAGUGGCCUUGGCAAGACUGCC | 0.08 |
| GGGAGAGCUCAAGACAGCGUGGCAAAGUGGCUGUGGCUAUACUGCC | 0.05 |
| AGCAGAGCUCAACAGAGCCUGGCAAAGUGGCUGUGGCUAUACUGCC | 0.03 |

| Variant | self-cleavage |
| --- | --- |
| GCGAGAGCUCAAUAAAGCGUGGCAAAGUGGCCGUGGCUAGACUGCC | 0.02 |
| GGCAGAGCUCAACACACCGGGGCAAAGAGGCUGUGCCUGGACUGCC | 0.03 |
| GGCAGAGCUCAACACAGCGUCGCAAAGUGGCUCUGGCUAAACUGCC | 0.04 |
| AGCAGAGCUCAACACAGCGUGGCAAAGAGCCUGUGGCUAGACUGCC | 0.99 |
| GGAAGAGCACAACACAACGUGGUAAAGUGGCUGUUGCUAGACUGCC | 0.16 |
| AGCAGUGUACAACACAGCGUCAUAAAGUGGCUGUUGCUAGACUGCC | 0.31 |
| GGCAGAGCUCAACACAGCGUGGCAAACUGGAUGUGGCUAGCCUGCC | 0.01 |
| AGCAGAGCUCAACACAGCGUGGCAAAGUCGGUGUGGCUAGACUGCC | 2.21 |
| GACAAAGCUCAACACAGCGUGGCAAAGUGGCUGUGGCUAGGCUGCC | 0.3 |
| GGCAGAGCUCAAGAUAGCGUGGCAAAGUGGCUGCGGCUAGACUGCC | 0.33 |
| GGCAGAGCACAACACAGUGUGGCAAAGUGGCCGUGGCUAGACUGCC | 0.05 |
| GGCAGAGCUCAACACAGGGUGGCAAAGGGGCUGUGGCUAGAAUGGC | 0.02 |
| GGCAGGGCUCAACACAACGUGUCAAAGUUGCUGUGGCUAGACUGCA | 0.01 |
| GGCAGAGCACAACACAGCGUGGGAAAGUGGCAGUGGCUAGACUGCC | 0.09 |
| GGCAGAGCUCAACACAGCGAGGUGAAGUGGCUGUGGCUAGAGUGCC | 0.01 |
| GGCAGAGGCCAACACAGCGUGGCAAAGUGGCUGUGGUUAUACUGCC | 0.01 |
| GGGAGAGCUCAACACAGCGUGGUAAAGUGGCUGUGGUUAGACUGCC | 0.18 |
| GGCAGAGAUCGACACAGCGUUGCAAAGUGGCUGUGGCUUGACUGCC | 0.01 |
| GGCAGAGCUCAACACAGCGUCGGAAAGUAGCUGUGACAAGACUGUC | 0.03 |
| GGGAGAGCUCAACACAGCGUGGCAAAGUGGCUGUGGCAAGCCUGCC | 0.11 |
| GGCAGAGCUCAACACAGCGUGACAAAGUGGCUGUGGCUAGGCUGUC | 0.25 |
| GGCAAAGCUUUACACAGUGUGGCAAAGUGGCUGUGGCUAGACUGCC | 0.02 |
| CGCAGAGCUCAACGCCUCGUGGCAAAGUGGCUGUGGCUAGAAUGCC | 0.01 |

| Variant | self-cleavage |
| --- | --- |
| GGCAGAGUUCAACACAACAUGGCAAAGUGGCUGUGGCUAGACUGCC | 0.08 |
| GGCAGUGCUCAACACAGCAUGGCAAAGUGGCUGUUGCUAGACUGCC | 0.11 |
| GGCAGACCUAAACACGGUGUGGCAAUGUGGCAGUGGCUUGACUGCC | 0 |
| CGCAGAGCUCAACACAGCGUGGCUAAGAGGCUGUGGCUAGACUGCC | 0.09 |
| AGCAGAGCUCAAAACAGCGUGGCACAGUGGCUGUGGCUAGACUGCC | 0.06 |
| UGCAGAACUCAACACAGCGUGGGACAGAGGCUGUGGCUAGACUGCC | 0.1 |
| GGCACAGGACAACACAGCGUGGCUAAGUGGCUUUGGCUAGACUGCC | 0.17 |
| GCCAGAGAUCAACACAGCGUGGCAAAGUGGCUGCGGCUAGACUGCC | 0.15 |
| GGCAGAGCUUAACAGAGCGUGGCAAAGUGGCUGUGGCUAGACUCCC | 0.03 |
| GGCAGCGCUCAACACAGCGUUGCAAAGUGGCUGUGGCUGGAAUGCC | 0.01 |
| GGCAGAGCUCAACACAGCGUGGCGAAGUUGCUGUGGCUUGACUGCC | 0.3 |
| GGCAGAGCUCAACACAGGGUGGCAAAGUGGCCGUGGUUAGACUGCC | 0.04 |
| GGCAGAGCUCAACAAAGCGUGGCAAAGUGGCCGUAGCUAUACUGCC | 0.05 |
| GGCAGAGAUAAACACAGCGUGGCAAACUGGCUAUGGCUAGACUGCC | 0.04 |
| GGCAGAGCUCAACAGAGAGUGGCAUAGUGGCUGUGGCUAGACUGCC | 0.01 |
| UGCAGAGCUCAACACACCGUGGCAAAGUGGUUGUGGCUAGACUGCC | 0.04 |
| GGCAGAGCUCAACACAGCGUGGCAAAGUGGCAGUGGAUAGAGUGCC | 0.05 |
| GGCAGACCUCAACACAACGUGGCAAAGUGGCUGUGGCUAAACUGCC | 0.07 |
| GGCAGAACUCAAAAAAGCGUGGCAAAGUUGAUGUGGCUAGACUGCC | 0.4 |
| GGCAGAGCACAAAACAGCGUGACAAAGUGGCUGUAGCUAGACUGCU | 0.08 |
| GGCAGAGCUCAACAAAGCGUGCCAAAGUGGCAGUGGCUAGAAUGCC | 0.02 |
| GACAGAGGUCAACACAGCGUGGCAAAGUGGUUGUGGCUAGACUGCC | 0.02 |
| GACAGAGUUCAACACAGCGUGGCAAAGAGGCUGUGGCUAGACUUCC | 0.06 |

| Variant | self-cleavage |
| --- | --- |
| GGCAGAGCUGUACACAGCGUGGCAAAGUGGCUGUGGCUAGACUGUC | 0.02 |
| GGCAGAGCUAAACACAGCGUGGCAAAGUGGCUGUGGCCGGACUACC | 0 |
| GGCAGAGCUCAGCACAGCGUGACAAAGUGCCUGUGGCUAGACUGGC | 0.03 |
| GGCAGAGCUCAACAGAGCGUGGCAAAGUUGCGGUGGCUAGACUGCC | 0.01 |
| GGCAGAGCUGAACACAGCGUGGCAAAGUGACUGUUGCUAGACUGCC | 0.01 |
| GGCAGAGUUCAACACAGCGCUGCAAAGAGGCUGUGGCUAGACUGCC | 0.09 |
| GGCAGAGCUCAUCACAGCGUGGCAACGUGGCUGUGGCUAGACUCCC | 0.13 |
| GGGAGAGCUCAACACAGUGUGGCAAAGUGGCUGUGGCUAGCCUGCC | 0.05 |
| GUCAGAGCUCAACUCAGCGUGGCAAUGUGGCUGUGGCUAGAUCGCC | 0.1 |
| GGCAGAGCUCAACACAGCGUGGCAGUUUGGCUGUGGCUAGAGUGCC | 0.2 |
| UGCAGAGCUCAACACAGCGUGGCAAAGUGGCUUUGGCUAGGCUGCC | 0.01 |
| GACAAAGCUCAACACAGGGUGGCAAAGUGGCUGUGGCUAGACUGCC | 0.18 |
| GUCAAUGCUCCACACAGCGUGGCAAAGUGGCUGUGGCUAGACUGCC | 0.01 |
| GGCAGAGCUAAACACAGCGUGGCAAAGUGGCUGGAGCUAGACUGCC | 0.01 |
| GGCCGAGCUCAACACCGCGUGGCAAAGUCGCUGUGGCUAGACUGCC | 0.09 |
| GGCAAAGCUCAACACAGAGUGGCAAAGUGGAUGUGGCUAGACUGCC | 0.06 |
| GGCAGACCUCAACACAGCUAGCCAAAGUGGCUGUGGCUAAACUGCC | 0.03 |
| GGCAGAGCUCAACAUAACGUGGCAAAGUGGCUGUCGCUAGACUGCC | 0.02 |
| GGCAGAGUUCAACACAGCCUGGCAAAGAGGCUGUGCCUAGACUUCC | 0.1 |
| GGCAGAGCUCAACACAGCGUGGCUAAGUGGGUGUGGCUUGAGUUCC | 0.02 |
| GGCGGAGCUCAAAACAGCGUGGCAAAGUGACUGUGGCUAGACUGCC | 0.06 |
| GGCAUAGCUAAACACAGCGUUGCAAAGUGGCUGUGGCUAGACUGCA | 0.06 |
| UUCAGAGCUCAACACAGCGUGGCAAAGUGGCUGUGGCUAGGCUGCC | 0.02 |

| Variant | self-cleavage |
| --- | --- |
| GGCUGAGGUCAACACAGCGUGGCAAACUGGCUGUGGCUAGACUGCC | 0.11 |
| GGCAGAGCUCAAUACAGCGUGGCAAAGUGGCUGUUGCUUGACUGCG | 0.02 |
| GGCAGAGCUCAACACAGAAUUGCAAAGUGGCUGUAGCUAGACUGCC | 0.08 |
| GGCAGAGCUCAACACAGUGUGCCUAAGUGGCUGUGGCUCGACUGCC | 0.21 |
| GGCAGAUCUCAACACAGCGUGGCAAAGUGGUUGCGGCAAGACUGCC | 0.38 |
| GGCAGAGCUGAACACAGCGUGGCCAAGUGGCUGUGGUUAGACUGCC | 0.01 |
| GGCAGAGCGAAACACAGCGUGGCAAAGUGGCUGUGGCUAGACGUCC | 0 |
| GGCAGAUCUCGAAACAGCGUGGCAAAGUGGCUGUGGCCAGACUGCC | 0.03 |
| AGCACAGCUCAACACAGCGUGGCAAAGUGGCUGUGGCUAGACAGCC | 0.06 |
| AGCAGAGCUCAACACUGCGUGGCAAAGUGGCUGUGGCUAAACUGCA | 0.02 |
| GGCAGAGCACUAUACAGCGUGGCAAAGUGGCUGUGGCUAGACUGCC | 0.06 |
| GGCAGAGCUCACCACAGCCUGGCAAAGUGGCAGUGGCUAGACUGUC | 0.02 |
| GGCAGAGCUCAACAGAGCGUGGCAAAGUGGUGGUCGCUAGACUGCC | 0.02 |
| GGGAGAGAUCUACACAGCGUGGCAAAGUGGCUGUGGCUAGAUUGCC | 0.03 |
| UGCAGAGCUCAACAGAGCGUGGCAAAGUUGCUGUGGCUAGACUGCG | 0.08 |
| GGCAGAGCUCAACUCAGGGUGGCAAAGUGUCUGUGGAUAGACUGCC | 0.05 |
| GGCAGAGCUCAACACAGCCUGGCGAAGUGGCUGUGUCUAGACUGCC | 0.02 |
| GGCAGAGCUCAACACCGUGUGGCAAAGUGGCUGUGGCUAGUCUGCC | 0.03 |
| GGCAGAUCUGAACACAGCGUGGCAAAGUGGCUGUGGCUGGACUGCC | 0.02 |
| GAUAGAGCUCAAACCAGCGUGGCAAAGUGGCUGUGGCUAGCCUGCC | 0.24 |

From the RNAGym collection of RNA variant scans (doi:10.7554/elife.90254)
